# Experimental data: PubChem BioAssay AID463173 (ICCB-Longwood Screening Facility, Harvard Medical School, 2010)
# The campaign covered roughly 52,000 compounds. About 1,700 (3.3%) were called active. Rule as the data show it: active = survival mostly below about 52% (no sharp cut-off); inactive = mostly above about 56%. Some of the results follow.
# Tested on: Wild type
# Test: S. aureus survival, RN4220 and DeltatarO strains – OD600, teichoic acid synthesis inhibitors, primary screen (AID 463173)
# Details: S. aureus RN4220 wild type/DeltatarO growth, OD600, 18 h, active compounds read low, screened at 18.75 µg/mL (by protocol)
row,SMILES,survival
1,O=C(NCCn1cc(SCc2ccc(F)cc2)c2ccccc21)c1cccs1,inactive: 53%
2,CCn1cc(C(=O)N2CCN(c3cc(Cl)ccc3C)CC2)c(=O)c2cc(S(=O)(=O)N3CCCCC3)ccc21,inactive: 79%
3,CCOc1ccc(C(=O)Nc2ccc(-n3nncc3-c3ccc(OC)cc3)cc2)cc1,inactive: 74%
4,Cc1ccc(NC(=O)CSc2nc(-c3ccco3)nc3cc(=O)[nH]n23)cc1,inactive: 84%
5,CCCc1cc(=O)[nH]c(Nc2ccc(OCC)cc2)n1,inactive: 85%
6,COc1ccccc1NC(=O)C1=C(C)Nc2nc(-c3ccco3)nn2C1c1ccccc1F (stereo unspecified),inactive: 78%
7,Cn1nnnc1SCCNCc1ccc(Cl)c(Cl)c1,inactive: 66%
8,Cc1ccc(Cn2c(C)c3cnn(CC(=O)NCCc4ccc(Cl)cc4)c(=O)c3c2C)cc1,inactive: 83%
9,Cc1cccc(S(=O)(=O)c2cn(C)c3cc(N4CCN(c5ccccc5)CC4)c(F)cc3c2=O)c1,inactive: 117%
10,COc1cccc(CCNC(=O)c2cnc3sc(N4CCOCC4)nn3c2=O)c1,inactive: 125%
11,COc1ccc(CNC(=O)c2ccc(NC(=O)N3CCSc4ncccc43)cc2)cc1,inactive: 82%
12,O=C(c1cc2sccc2n1Cc1ccccc1)N(Cc1ccco1)Cc1cccs1,inactive: 123%
13,CCCNC(=O)CN1CCN(c2ccc(NC(=O)c3ccc(OC)cc3)cc2C(=O)O)CC1,inactive: 87%
14,N#CCN(CC#N)S(=O)(=O)c1ccccc1,inactive: 99%
15,Cc1ccccc1C(=O)N1CCC(C(=O)Nc2ccc(F)cc2F)CC1,inactive: 75%
16,CC(C)NC(=O)c1ccccc1NC(=O)c1ccco1,inactive: 106%
17,Cc1nc(N2CCOCC2)c2c(C(=O)N3CCN(c4ccccc4)CC3)c(C)oc2n1,inactive: 32%
18,Cc1ccc(S(=O)(=O)c2nc(-c3ccccc3F)oc2NCc2ccccc2)cc1,inactive: 84%
19,CC(=O)OC(C(=O)NCc1ccc(F)cc1)c1ccccn1 (stereo unspecified),inactive: 105%
20,Cc1cc2c(cc3c(SCC(=O)Nc4ccc(Cl)cc4F)nncn32)o1,inactive: 47%
21,CCOC(=O)c1cccc(NC(=O)NC(C)c2c(-n3cccc3)sc3c2CCN(C)C3)c1 (stereo unspecified),inactive: 131%
22,O=C(COc1ccccc1F)Nc1ccc(OCc2cc(=O)n3ccccc3n2)cc1,inactive: 133%
23,COc1ccc(CC(=O)N2CCc3cc(OC)c(OC)cc3C2COc2ccc3c(C)cc(=O)oc3c2)cc1OC (stereo unspecified),inactive: 74%

row,SMILES,survival
1,COCCCN1C(=O)c2oc3ccccc3c(=O)c2C12C(=O)N(C)c1ccccc12 (stereo unspecified),inactive: 91%
2,CCOc1ccc(NC(=O)CCc2c(C)nc3c(-c4ccccc4)c(C)nn3c2C)cc1,inactive: 130%
3,O=c1ccc2cc(S(=O)(=O)Nc3ccc(OC(F)(F)F)cc3)ccc2[nH]1,inactive: 88%
4,Cc1ccc(CNC(=O)CSC2=Nc3ccccc3N=C(c3ccc(F)cc3)C2)cc1,inactive: 69%
5,COC(=O)c1ccc(Cn2c(SCc3ccc(F)cc3)nc3ccncc32)cc1,inactive: 66%
6,CC(C)CCn1c(=O)c2cccnc2n(CC(=O)Nc2ccccc2F)c1=O,inactive: 93%
7,Cn1c2ccccc2c2cnn(CC(=O)Nc3ccccc3F)c(=O)c21,inactive: 135%
8,Cc1cc(C)cc(NC(=O)c2c(C)oc3nc(C)nc(N4CCCC4)c23)c1,inactive: 47%
9,COc1cccc(-c2noc(-c3cc(C(C)C)[nH]n3)n2)c1OC,inactive: 69%
10,COc1cccc(Cn2c(-c3nonc3NC(C)=O)nc3ccccc32)c1,inactive: 82%
11,CCc1ccc(OCC(=O)Nc2ncn[nH]2)c(Br)c1,inactive: 74%
12,CCOc1ccc(Nc2nn(-c3ccc(OC(F)(F)F)cc3)nc2C(C)=O)cc1,inactive: 123%
13,COc1ccccc1CNC(=O)CCNS(=O)(=O)c1ccc2c(c1)oc(=O)n2C,inactive: 83%
14,Cc1cccc(NC(=O)c2sc3nc(-c4cc5ccc(O)cc5oc4=O)[nH]c(=O)c3c2C)c1,inactive: 82%
15,O=C(Cn1c(=O)nc(-c2ccccc2F)c2cc(Cl)ccc21)NCCCc1ccccc1,inactive: 78%
16,O=C(COc1ccc(F)cc1)NCc1ccc2c(c1)CCN2C(=O)c1ccccc1,inactive: 55%
17,CNC(=O)c1ccc2c(c1)N(Cc1ccccc1Cl)C(=O)c1ccccc1S2,inactive: 70%
18,O=C(CN(C1CCCCC1)S(=O)(=O)c1ccccc1)N1CCCCC1,inactive: 101%
19,Clc1ccc(-c2noc(-c3cccnc3NCc3ccco3)n2)cc1,inactive: 83%
20,Cc1ccc(-n2nc(C)c3nc(CCC(=O)Nc4cccc(F)c4)c(=O)n(C)c32)cc1,active: -6%
21,Cc1cccc(CNC(=O)CCCN2C(=O)CCn3nc(-c4cccn4C)cc32)c1,inactive: 69%
22,CCc1cccc(C)c1Nc1c(-c2ccsc2)nc2ncccn12,inactive: 66%
23,Cc1ccc2c(c1)c1c3n2CCN(C(=O)c2cccc(C(F)(F)F)c2)C3CCC1 (stereo unspecified),active: 5%

row,SMILES,survival
1,Cc1ccc(C)c(Cn2c3ccccc3c3cnn(CC(=O)NCCc4ccccc4)c(=O)c32)c1,inactive: 83%
2,COC(=O)CCC1(C(=O)O)CCOC(C)(C)C1 (stereo unspecified),inactive: 112%
3,COc1ccc(N2CCN(Cc3nnc(-c4ccc5c(c4)OCO5)o3)CC2)cc1,inactive: 81%
4,CCOc1c(Cl)cc(C(=O)N(Cc2ccc(N(C)C)cc2)Cc2ccco2)cc1Cl,inactive: 87%
5,COc1ccc(CNC(=O)C2CCCN(c3nnc(C)c4c(C)n(-c5ccc(C)cc5)nc34)C2)cc1 (stereo unspecified),inactive: 70%
6,CCC(Sc1nc2ncccc2o1)C(=O)Nc1ccc(OC)c(OC)c1 (stereo unspecified),inactive: 55%
7,CCC1CN(C(=O)N2CCC(C(=O)N3CCN(c4ccccc4F)CC3)CC2)c2ccccc2O1 (stereo unspecified),inactive: 110%
8,O=S(=O)(c1ccc(Cl)cc1Cl)n1ccnc1,inactive: 71%
9,CSc1oc(-c2cccs2)nc1S(=O)(=O)c1ccc(Br)cc1,inactive: 55%
10,CCOc1ccccc1N(C)C(=O)c1c2c(nc3ccccc13)C(=O)N(C1CCCCC1)C2,inactive: 90%
11,Cc1oc2c(c1C(=O)NCCO)CCCC2,inactive: 109%
12,CC(C)C(=O)Nc1sc2c(c1C(N)=O)CCCC2,inactive: 114%
13,Cc1ccc2c(=O)cc(C(=O)Nc3sc4c(c3C(=O)NCC3CCCO3)CCCC4)oc2c1 (stereo unspecified),inactive: 86%
14,COc1ccc(C2CC(=O)c3cc(-c4nc(-c5cccc(Cl)c5)cs4)c(=O)[nH]c3C2)cc1 (stereo unspecified),inactive: 67%
15,O=C(COc1cc2oc(=O)c3c(c2cc1Cl)CCC3)N1CCCC1,inactive: 102%
16,Cc1ccc2oc(=O)n(Cc3ccccc3Cl)c2c1,active: -2%
17,Cc1ccc2oc(-c3cc(NC(=O)c4oc5ccccc5c4C)ccc3Cl)nc2c1,inactive: 81%
18,CCCNC(=O)C1CCC(CNS(=O)(=O)c2ccc3c(c2)CC(C)N3C(C)=O)CC1 (stereo unspecified),inactive: 105%
19,CN(Cc1ccc(F)cc1)S(=O)(=O)c1nnc(NC(=O)c2ccccc2)s1,inactive: 66%
20,CCc1ccc(OCC(=O)Nc2cc(-c3nc4cc(C)ccc4o3)ccc2C)cc1,inactive: 81%
21,CC(=O)Nc1ccc(N2C(=O)CC(N3CCCCC3C)C2=O)cc1 (stereo unspecified),inactive: 105%
22,CC(C)N(C(=O)CSc1nnc(-c2ccc3c(c2)OCO3)n1C)C(C)C,inactive: 107%
23,CCOc1ccc(Nc2ncnc3scc(-c4ccc(OC)cc4)c23)cc1,inactive: 73%

row,SMILES,survival
1,Cc1ccc(C(=O)NCc2ccccc2)cc1NC(=O)c1nsc2ccccc12,inactive: 72%
2,Cc1ccc(NC(=O)c2oc3ccccc3c2NC(=O)C23CC4CC(CC(C4)C2)C3)cc1,inactive: 36%
3,CCC(c1nnnn1CCOC)N(Cc1cc2ccc(OC)cc2[nH]c1=O)C1CCCC1 (stereo unspecified),inactive: 109%
4,Cc1cccc(OCC(=O)OC2CCN(C)CC2)c1,inactive: 109%
5,Cc1c(NC(=O)CN2C(=O)c3ccccc3C2=O)c(=O)n(-c2ccccc2)n1C,inactive: 103%
6,O=C1CCC(=O)c2oc3ccccc3c2N1,inactive: 109%
7,CCOC(=O)c1c(C)[nH]c(C)c1S(=O)(=O)N1CCC(C(=O)Nc2ccc(C)c(N(C)C)c2)CC1,inactive: 56%
8,CCc1ccc(N2C(=O)CN(S(=O)(=O)CC)CC2(C)C(=O)NC2CCCCC2)cc1 (stereo unspecified),inactive: 72%
9,COc1ccc(-c2nc3n(c2NC(C)(C)C)CCN(C(=O)Cc2ccccc2F)C3)cc1,inactive: 115%
10,Cc1cc(-c2ccc(C)c(S(=O)(=O)NCc3cccs3)c2)on1,inactive: 59%
11,Cn1cc(C(=O)NCCc2ccccc2)c(=O)c2cc(S(=O)(=O)N3CCCCC3)ccc21,inactive: 84%
12,CC(C)(C)OC(=O)N1CCC(c2c(C(=O)N3CCN(Cc4ccccc4)CC3)cnn2-c2ccc(Cl)cc2)CC1,inactive: 85%
13,O=C(CNC(=O)c1ccccc1)OCc1cc(=O)n2nc(C3CC3)sc2n1,inactive: 74%
14,CCC(=O)Oc1ccc2c(c1)nc(C)n2CC,inactive: 112%
15,O=c1c2oc3ccccc3c2n(Cc2ccc(Cl)cc2)c(=O)n1Cc1ccccc1,inactive: 113%
16,CCC1CCCCN1C(=O)CCS(=O)(=O)c1cc2c(cc1C)NC(=O)CO2 (stereo unspecified),inactive: 81%
17,COC(C(=O)Nc1ccc2c(c1)OCCO2)c1ccccc1 (stereo unspecified),inactive: 114%
18,Cc1ccc(Nc2c(-c3ccc(C)o3)nc3cccc(C)n23)cc1,active: 21%
19,CCS(=O)(=O)c1ncc(Cl)c(C(=O)NCc2ccccc2)n1,inactive: 75%
20,Cc1cc(C)cc(-n2c(SCC(=O)N3CCCCCC3)nc3c([nH]c4ccccc43)c2=O)c1,inactive: 78%
21,c1ccc(Cn2nnnc2C(c2cccs2)N(Cc2cccnc2)Cc2ccco2)cc1 (stereo unspecified),inactive: 129%
22,COc1ccc(-c2cc(=O)oc3c4c(ccc23)OCN(Cc2ccccc2)C4)cc1,inactive: 89%
